Experimental data as given in the RNAGym collection of RNA variant scans (doi:10.7554/elife.90254).
Read counts are not given, so values of variants with three or more changes are uncertain.

B1: OR4K15 (parent)
chain: GUUAACGGUCAUAGGCCAUGGAAACUAGGAGCACCAUUUCGCUGCCAGUGAAGAAAUGAACAAAGAAAAUCUGGGCCAGGCAGGCAUCAAAAGAAAUAGUCUUGCGCUCAACCAGAAAGUCUGUAAUCAUUUUAAGGGUA

Variants of: B1
Test: self-cleavage, relative activity (ratio to wild type); higher = more cleavage; in vitro, sequencing; the parent is a self-cleaving ribozyme

Variant	self-cleavage
U72A A117G A126G	0.25
A69U A114G A126U	0.77
A69U C77U U103C	0.24
A69G A82G U108C	0.02
A78G G84A A116G	0.1
U70C A114G A116G	0.42
U70C A91G U124C	0.19
A78G A92G A129G	0.22
A78G C105U A118G	0.03
A68U U100A U122C	0.2
A69G U108C A118G	0.01
U70C U87A A90G	0.36
U72C C81U A82G U87C A96G	0.06
A68U A94U U131C	1.64
G74A G80U A96G U102C A111G	0.03
A69G C71U U108C	0.01
A68U A82G U132C	0.87
A69G A91G U103C U139C	0.12
A78G A98G U122A	0.02
A69G A111G A140C	0.02
U70C A78G A118G	0.15
A69G U127A U133C	2.09
A69C A126G U130A	1.03
A69G A82G A89G	0.45

Variant	self-cleavage
A69G U100C U103C U130C	1.39
A69G A90G A92G	1.13
C71A U108C U131C	0
C77U A78G A89G	0.09
A69C A111U C112U U122C	0.01
C77U A92U A96U A116G A117U U133C	0.35
C71A U127C G137A	0.4
U70C U72C G84U	0.41
A69G A89U A94G A135G	1.85
A69G A82U A111U	0.01
U70C A95G C101A	0.16
U72C A78G U103C	0.1
G75U A116G U124C U132C A135G	0
A69G A82G U108C A111U	0.06
A69G A126G A129G	0.6
A78G A82G A117G	0.11
U70A A92G A94G U131C	0.81
U70C A92G U130C	0.35
U72A U120G U132C	0.09
A69G A110G A117U	0.05
U70C A94G C101A	0.12
A68G U87C U130A	0.19
A69G A95G A96G A111G U127C	0.01
A68G U103A A114U	0.01

Variant	self-cleavage
A78G G80A U103C U127C	0.03
G75A A114U A134G	0
U70C G75A A110C	0.03
U72C A86U G104A U139C	0.01
U72C A92G U132A G137A	0.15
A78C A86G A94U	0.23
A69U A90G U103A	0.69
G74U U100C U108A	0.04
U70C U132C A135G	0.56
U72A U100C U122C	0.46
U72A U100C U122G	0.46
A69G U103C A114G U120C	0.02
U72C A92G A116G	0.14
U70A A91G A110U A126G U127C U133C	0.15
U70C A95G A114G	0.43
G73A U100C G136A	0.38
U70G U120C U131C	0.15
A69G A91G U100A	0.51
A68G U108A U133C	0.03
A78G A82U U108A	0.03
G75A A98G U108C	0.01
A68G U87C A117G	1.62
U72A A86U A118G	0.06
U70C U87C A114G A118G	0.09

Variant	self-cleavage
A68U A89U A98G	0.38
A78G U103C A110G	0.01
G74A A114G G123A	0.06
U72A U132C U139G	0.09
U72C U108C A116U	0.01
G75C A94G A111G	0.01
U72C A96G A129G U132C	0.16
A78G A114U U120C	0.02
G74C A96G A126G	0.18
U72A U103C A126G	0.05
U70A A94U U122G	2.97
G73U U122C U131C	0.09
A69U A114U A117G U122C U131C	0
G75A C88A A117G A126G	0.03
A68G U87A U127A	1.78
A69G A114G U130C	0.06
C71A G74U A82G A129G	0.06
U70C A91G A116G U122C	0.96
U70C A95G U100C A129U	0.43
U72C A96G U122C A135G	0.07
U72C U102C A110G	0.04
U70C C81A U127C	0.15
C71A A82U A90G A126U U127A	0.05
A69G U100C A110G	0.27

Variant	self-cleavage
C76G A90G C109U	0.08
A69C A118G U131C	0.49
A69U U130C U132C	1.29
A68G U87C A118G A134G	0.12
A69G A82G A89U A116U	0.06
A78G A82C A117U	0.08
U70C U108C A114G	0.01
U72A A82G A89U A117G	0.18
U72A A92G U100C U132C	0.32
A69G A96G U130C	1.1
U70C U87C A117G	1.78
U72C A96G A118G	0.14
A78C A92G U120C U132A	0.05
C76U A110G A116G	0.02
U70C U102C A117C	0.51
U70C A89G A94G	0.46
C77U A82G A94G	0.45
A68U A86G A91G A111G	0.03
U70C A90G A135G	1.85
A69C U87C A96U U100C U102A A117G	2.6
A69G U70C C77A	0.11
U70C G74C U127A	0.1
G73U U87A A90G	0.37
A78G C113A U127C	0

Variant	self-cleavage
A69G A78U A111G A117G	0.01
A78G A90G A95G	0.13
A69G G83A U124C	1.02
A69G U87C U108C	0.05
U70C A114G A117G	0.21
U70C U87C C101U	0.05
U70C A95G U102A U108C	0
U72C A90G A91G	0.16
U72A A86U U100C	0.6
A78G G79U A90G U120C	0.16
A69G U103A U122C	0.39
A69G A78G A118G	0.12
U70C A118G U131C	0.08
G74A G83U U87C	0.08
A69G C88U A95G A111U A114G A118U	0.01
C76U U100C U120C A126U U127C	0.03
A69U U120C G136U	1.39
A69G A95G U100A U127C	0.27
A69G A96G U124C	0.74
A69U U103C U108C U120C	0
A69G A82U U131G	0.02
A68U A94G A111G A117G A118G U122A	0.02
U72A A78U U100C	0.04
U72C A126G U127C	0.03

Variant	self-cleavage
U70C A92G A94G U127C	0.24
A68G U97A U102C	1.68
A69G A92G A116G	0.77
A69U A78U A111U	0.04
U72C A114C U127A	0.02
A69G U87C A126G	1.03
A68U G83A A126G	1.96
A69G A126G U130C	0.51
U70C U102C C112U	0.02
A68G U103C U122C	0.95
U72C U87A A114C A117G	0
A69G A92G A110U	0.61
U72C G80C A94U C112G A117G	0.02
A69G U100C A116U	0.67
U72A A92G U131C	0.11
A78G A116G U124A	0.04
U72G A95G A96G	0.2
U72G A91G U97A	0.37
U70C U87C A92G	1.04
U72A A116U U132A	0.15
U72A U103A A114U	0.55
A78G A95U A129G	0.17
U70C A95G A126G	0.97
